This is an account of results in paper PMC4336329 (PLoS ONE, 2015).

In all, about 310,000 compounds went through this assay and about 2,200 (0.71%) showed an effect of 50% or more. The effect is printed as a negative number. The list shows a part of the results.

Chain of human ether-à-go-go-related gene (hERG) potassium channel (Q12809 whole entry, looked up): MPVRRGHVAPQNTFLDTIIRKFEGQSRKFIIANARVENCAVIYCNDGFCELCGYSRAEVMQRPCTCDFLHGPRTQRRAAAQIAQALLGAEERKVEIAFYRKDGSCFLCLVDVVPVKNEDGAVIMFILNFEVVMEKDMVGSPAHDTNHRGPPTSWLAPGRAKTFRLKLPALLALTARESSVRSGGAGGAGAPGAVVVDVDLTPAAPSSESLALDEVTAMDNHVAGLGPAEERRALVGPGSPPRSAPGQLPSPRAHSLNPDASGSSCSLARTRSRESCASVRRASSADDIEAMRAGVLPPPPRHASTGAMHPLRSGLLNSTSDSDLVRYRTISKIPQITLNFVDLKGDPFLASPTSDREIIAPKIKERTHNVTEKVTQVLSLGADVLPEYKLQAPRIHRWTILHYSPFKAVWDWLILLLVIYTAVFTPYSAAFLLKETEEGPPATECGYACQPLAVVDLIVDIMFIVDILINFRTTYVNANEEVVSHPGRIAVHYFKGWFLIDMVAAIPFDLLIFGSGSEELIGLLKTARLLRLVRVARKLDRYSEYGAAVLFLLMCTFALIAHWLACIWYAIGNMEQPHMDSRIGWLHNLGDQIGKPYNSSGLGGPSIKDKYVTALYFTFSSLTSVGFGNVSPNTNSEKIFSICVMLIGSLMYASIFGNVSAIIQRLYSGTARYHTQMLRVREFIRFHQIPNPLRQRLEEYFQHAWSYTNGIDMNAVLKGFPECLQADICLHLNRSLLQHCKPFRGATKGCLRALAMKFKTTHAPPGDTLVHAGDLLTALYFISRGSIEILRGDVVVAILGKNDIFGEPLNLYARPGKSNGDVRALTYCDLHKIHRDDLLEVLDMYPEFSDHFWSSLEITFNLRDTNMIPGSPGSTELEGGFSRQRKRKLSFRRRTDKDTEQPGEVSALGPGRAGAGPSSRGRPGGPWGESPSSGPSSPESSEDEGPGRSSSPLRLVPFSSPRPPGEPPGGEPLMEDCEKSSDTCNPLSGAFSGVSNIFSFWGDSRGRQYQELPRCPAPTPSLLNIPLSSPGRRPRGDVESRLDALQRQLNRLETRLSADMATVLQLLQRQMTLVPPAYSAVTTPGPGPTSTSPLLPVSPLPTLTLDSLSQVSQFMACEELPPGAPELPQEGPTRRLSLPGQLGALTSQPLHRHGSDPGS

This experiment addresses human ether-à-go-go-related gene (hERG) potassium channel (human, UniProt Q12809). The experiment can be described thus: primary screen, population patch clamp on CHO cells stably expressing hERG.
For the compound `O=C(COC(=O)COc1ccccc1)Nc1ccc(S(=O)(=O)N2CCOCC2)cc1`, the “hERG current change (%, negative = inhibition) at 1uM” value is 4.87%.

Regarding `O=S(=O)(Nc1ccccc1N1CCCCC1)c1ccc(F)cc1`, the “hERG current change (%, negative = inhibition) at 1uM” value amounted to 4.27%.

With `COc1ccccc1-n1cnnc1SCC(=O)c1c[nH]c2ccccc12`, the “hERG current change (%, negative = inhibition) at 1uM” value is on record as 18.8%.

As for `COc1ccc(S(=O)(=O)N2CCCN(CC(=O)Nc3ccc(NC(C)=O)cc3)CC2)cc1`, the “hERG current change (%, negative = inhibition) at 1uM” value turned out to be 15.2%.

For `O=C(NCCCn1ccnc1)c1noc2c1CCc1ccccc1-2`, the “hERG current change (%, negative = inhibition) at 1uM” value is listed as -25.9%.

`CCCOc1ccc(C(C)(O)CN2CCOCC2)cc1` (stereo not shown): the “hERG current change (%, negative = inhibition) at 1uM” value was found to be 14.7%.

As for `COC(=O)c1ccc(CN2CCCC(C(=O)Nc3cccc(-n4cnnn4)c3)C2)cc1` (stereo not shown), the “hERG current change (%, negative = inhibition) at 1uM” value was 1.05%.

For `Cc1ccc(C(=O)NC2CCS(=O)(=O)C2)cc1S(=O)(=O)N1CCOCC1` (stereo not shown), the “hERG current change (%, negative = inhibition) at 1uM” value worked out at 3.56%.

With `Cc1ccc2nc(NC(=O)c3cccc(-c4cc5ccccc5oc4=O)c3)sc2c1`, the “hERG current change (%, negative = inhibition) at 1uM” value turned out to be 21%.

Turning to `Nc1c(S(=O)(=O)c2cccs2)c2nc3ccccc3nc2n1Cc1ccc2c(c1)OCO2`, the “hERG current change (%, negative = inhibition) at 1uM” value is recorded as 4.37%.

As to `Cc1ccc2oc(=O)c3cc(C(=O)NCCCN4CCN(C)CC4)sc3c2c1`, the “hERG current change (%, negative = inhibition) at 1uM” value was found to be 9.08%.

For the compound `Cc1ccc(Cn2ccc(NC(=O)c3cc(C)on3)n2)cc1`, the “hERG current change (%, negative = inhibition) at 1uM” value is listed as 17.8%.

Take `CCc1nnc(N/N=C/c2ccc(O)c(OC)c2)n1N`: the “hERG current change (%, negative = inhibition) at 1uM” value was 19.7%.

For `O=C(CCN1C(=O)/C(=C/c2ccccc2Cl)SC1=S)NC1=NCCS1`, the “hERG current change (%, negative = inhibition) at 1uM” value stood at 13%.

As to `COc1ccc(C(=O)Nc2ccccc2C(=O)Nc2cccnc2)cc1`, the “hERG current change (%, negative = inhibition) at 1uM” value was found to be 7.13%.

Turning to `COc1ccc(/C=C/c2c([N+](=O)[O-])c(=O)n(C)c(=O)n2C)cc1O`, the “hERG current change (%, negative = inhibition) at 1uM” value was found to be 13.2%.

Turning to `Cc1ccc(CNC(=O)CN2C(=O)CSc3ccc(S(=O)(=O)N4CCC(C)CC4)cc32)cc1`, the “hERG current change (%, negative = inhibition) at 1uM” value worked out at 9.13%.

Consider `Cc1ccc(C2=NOC(=O)/C2=C\c2ccc(C)o2)cc1`, for which the “hERG current change (%, negative = inhibition) at 1uM” value is on record as 9.81%.

For `COC(=O)c1cc(/C=C/c2ccccc2)[nH]n1`, the “hERG current change (%, negative = inhibition) at 1uM” value was determined as 3.54%.

Regarding `CN1CCN(c2ccccc2NC(=O)c2cc3c(s2)-c2ccccc2OC3)CC1`, the “hERG current change (%, negative = inhibition) at 1uM” value is listed as 0.253%.

In the case of `COc1ccc(C(CNC(=O)c2ccc(S(=O)(=O)Nc3ccccc3C)cc2)N2CCOCC2)cc1` (stereo not shown), the “hERG current change (%, negative = inhibition) at 1uM” value is given as 3.04%.

`Cc1ccc(NC(=O)C2C3CCCC2C3c2ccccc2)c(C)c1` (stereo not shown): the “hERG current change (%, negative = inhibition) at 1uM” value was 4.75%.

In the case of `CC(=O)c1ccc(NC(=O)C2CCCN2S(=O)(=O)c2ccc(F)cc2)cc1` (stereo not shown), the “hERG current change (%, negative = inhibition) at 1uM” value came to 1.16%.

Take `CC(=O)Nc1ccccc1C(=O)N1CCN(Cc2ccc3c(c2)OCO3)CC1`: the “hERG current change (%, negative = inhibition) at 1uM” value turned out to be 14.5%.

As to `Cc1cc(C)n(-c2ccc(C(=O)Nc3nnc(C4CC4)s3)cc2)n1`, the “hERG current change (%, negative = inhibition) at 1uM” value came out at 4.64%.

Consider `COc1ccc(C(=O)N=C2SC3CS(=O)(=O)CC3N2Cc2ccc(OC)c(OC)c2)cc1` (stereo not shown), for which the “hERG current change (%, negative = inhibition) at 1uM” value stood at 10.7%.

As to `CCN1C[C@]2(COC)CC[C@H](OC)[C@@]34C5C[C@H]6C(=O)C5[C@](O)(C[C@H]6OC)[C@@](O)(C(OC)C23)[C@@H]14` (stereo partly shown), the “hERG current change (%, negative = inhibition) at 1uM” value was 8.6%.

On to `CC(CCc1ccccc1)NC(=O)CCNC(=O)Cn1ccc2ccccc2c1=O` (stereo not shown), for which the “hERG current change (%, negative = inhibition) at 1uM” value came to 15%.

As for `COc1ccccc1CNC(=O)[C@H](C)NC(=O)C1CCN(C(=O)[C@@H](N)CC(C)C)CC1`, the “hERG current change (%, negative = inhibition) at 1uM” value was -3.47%.

For `COc1ccc(-n2c(=S)[nH]c3cc(C(=O)NCCCN4CCOCC4)ccc3c2=O)cc1OC`, the “hERG current change (%, negative = inhibition) at 1uM” value was found to be 23.7%.

`COCCC(=O)N1CCC(Oc2ccc(C(=O)NCc3csc(C)n3)cc2)CC1`: the “hERG current change (%, negative = inhibition) at 1uM” value stood at 10.2%.

With `CCO.Nc1nc(N)c2cc(Sc3ccc4ccccc4c3)ccc2n1`, the “hERG current change (%, negative = inhibition) at 1uM” value is recorded as 2.73%.

In the case of `Cc1ccc(Cn2c(C(C)Nc3nc(-c4ccc(F)cc4)cs3)nc3cc(Cl)c(Cl)cc32)cc1` (stereo not shown), the “hERG current change (%, negative = inhibition) at 1uM” value is listed as 9.52%.

As to `CCc1ccc(N(C2C=CS(=O)(=O)C2)S(=O)(=O)c2ccc(C)cc2)cc1` (stereo not shown), the “hERG current change (%, negative = inhibition) at 1uM” value is on record as -13.3%.

For the compound `COc1cc(C2NC(=S)NC(c3ccccc3)=C2C(C)=O)ccc1O` (stereo not shown), the “hERG current change (%, negative = inhibition) at 1uM” value turned out to be 11.4%.

Take `Cc1ccc2c(c1)N(C(=O)CCC(=O)NCCCN1CCN(C)CC1)CCO2`: the “hERG current change (%, negative = inhibition) at 1uM” value amounted to 7.21%.

As to `COC(=O)c1cc2c(C)nn(C)c2s1`, the “hERG current change (%, negative = inhibition) at 1uM” value is listed as 9.68%.

As for `FC(F)(F)c1cccc(NC(=S)N2CCN(c3ccccn3)CC2)c1`, the “hERG current change (%, negative = inhibition) at 1uM” value was 12.8%.

On to `COc1ccc(NC(=S)N2CCC(C(O)(c3ccccc3)c3ccccc3)CC2)cc1`, for which the “hERG current change (%, negative = inhibition) at 1uM” value was determined as 5.8%.

For `CCN(CC)C(=O)CSc1nnc2nnc3cc(Cl)ccc3n12`, the “hERG current change (%, negative = inhibition) at 1uM” value was found to be 2.62%.

`Fc1ccc(CSc2nnc(CN3CCOCC3)n2-c2ccccc2)c(Cl)c1`: the “hERG current change (%, negative = inhibition) at 1uM” value was -0.2%.

Take `COc1ccccc1C(C)NC(=O)C1CCN(S(=O)(=O)c2cccs2)CC1` (stereo not shown): the “hERG current change (%, negative = inhibition) at 1uM” value is 9.63%.

Consider `O=C(O)COc1ccc2c(c1)O/C(=C\c1ccco1)C2=O`, for which the “hERG current change (%, negative = inhibition) at 1uM” value is recorded as 15.7%.
